Assay results as given in PubChem BioAssay AID588342 (National Center for Advancing Translational Sciences (NCATS), 2011).
The whole screen tested about 360,000 compounds, of which about 25,000 (6.9%) were called active. Inconclusive means that the source gave no clear call. Such entries were picked first, then a sample of the others. Calls follow the shape of the dose curve; as a rule, active = well fitted inhibition curve with a large enough effect; inconclusive = small, poorly fitted or top-dose-only effect; inactive = flat fitted curve, though single readings scatter. Potencies of inconclusive entries are doubtful fits and often do not repeat.

target: Luciferin 4-monooxygenase (Photinus pyralis) (UniProt P08659); assay: qHTS profiling assay for firefly luciferase inhibitor/activator using purifed enzyme and Km concentrations of substrates (counterscreen for miR-21 project); details: purified FLuc, luminescence inhibition; series mostly up to 57.5 µM; also: nearly all actives have a fitted effect of over 55% in size
UniProt P08659, sequence (P08659 whole entry, looked up): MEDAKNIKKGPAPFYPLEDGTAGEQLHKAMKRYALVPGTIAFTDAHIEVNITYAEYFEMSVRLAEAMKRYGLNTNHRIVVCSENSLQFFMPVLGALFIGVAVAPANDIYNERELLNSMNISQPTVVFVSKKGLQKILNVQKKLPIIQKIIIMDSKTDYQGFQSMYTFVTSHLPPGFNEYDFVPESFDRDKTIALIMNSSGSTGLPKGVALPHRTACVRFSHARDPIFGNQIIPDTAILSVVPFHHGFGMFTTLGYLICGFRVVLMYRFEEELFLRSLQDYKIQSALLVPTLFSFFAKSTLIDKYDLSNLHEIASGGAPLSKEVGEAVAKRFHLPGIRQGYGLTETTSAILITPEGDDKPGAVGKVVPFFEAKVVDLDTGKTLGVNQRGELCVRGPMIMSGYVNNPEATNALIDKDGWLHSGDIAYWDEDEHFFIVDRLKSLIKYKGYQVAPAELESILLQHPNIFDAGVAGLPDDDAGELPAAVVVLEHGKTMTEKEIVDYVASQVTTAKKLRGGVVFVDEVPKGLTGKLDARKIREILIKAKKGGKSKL
Procedure, shortened: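 Biochemical qHTS of compounds, final roughly 60 µM downward over six points, against 10 nM purified firefly luciferase using Km concentrations of substrates (10 uM D-luciferin, 10 uM ATP) in Tris acetate pH 7.5 buffer; luminescence output.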
Potency is read from the fitted curve at half-maximal effect; tags tell the direction and shape of the fitted curve.

Structure (SMILES)	Potency
CC(=O)c1cccc(OCC(=O)c2cc(C)n(-c3cc(C)on3)c2C)c1	inconclusive: 23.9 µM [inhibitor, partial curve]
CC(=O)Oc1ccc(NC(=O)CCC2CCCCC2)c(C(=O)O)c1	inconclusive: 37.9 µM [inhibitor, partial curve, poor fit]
Nc1nncn1C(=O)CCCOc1ccc(Cl)cc1Cl	active: 9.53 µM
CCOC(=O)c1c(NC(=O)CN2CCN(C)CC2)sc(C(=O)Nc2ccccc2)c1C	inconclusive: 30.1 µM [inhibitor, single point]
N#Cc1ccccc1NC(=S)NC(=O)c1cccnc1	inconclusive: 21.3 µM [inhibitor, partial curve, poor fit]
Cc1ccc(N2CC(NC(=O)C(=O)c3c(C)[nH]c4ccccc34)CC2=O)cc1C (configuration not stated)	inactive
COc1ccc(C(=O)Nc2nc(CC(=O)NCCc3ccccc3)cs2)cc1	active: 4.78 µM
CC(=O)Oc1ccc2nc(CN3C(=O)c4ccc([N+](=O)[O-])cc4C3=O)oc(=O)c2c1	inconclusive: 26.9 µM [inhibitor, partial curve, poor fit]
C1=C(CCNc2ncnc3c2cnn3-c2ccccc2)CCCC1	active: 3.38 µM
Cc1csc(NC(=O)CSc2nsc(SCC(=O)Nc3nc(C)cs3)c2C#N)n1	inconclusive: 15.1 µM [inhibitor, partial curve, poor fit]
CN(Cc1ccccc1)c1nc(N)c([N+](=O)[O-])c(Nc2cccc(F)c2)n1	inactive
COc1ccc(N2CCN(C(=O)Cn3cnc4nc5c(cc4c3=O)CCCC5)CC2)cc1	inactive
Cc1ccc(NC(=O)C(=O)NCc2ccco2)c(C)c1	inconclusive: 37.9 µM [inhibitor, single point]
O=C(Cn1cc(C(F)(F)F)cc(Cl)c1=O)NCc1ccccc1	inconclusive: 21.3 µM [inhibitor, partial curve]
CCCCn1c(SCc2ccc(Cl)cc2)nc2c1c(=O)[nH]c(=O)n2C	inactive
COC(=O)c1cc(S(=O)(=O)N2CCN(Cc3ccccc3)CC2)cn1C	inactive
Cc1ccc(NC(=O)/C=C/c2ccccc2)c(Br)c1	active: 2.69 µM
COc1ccc(-c2nc3scc(CCNS(=O)(=O)c4c(C)noc4C)n3n2)cc1	inconclusive: 26.9 µM [inhibitor, partial curve, poor fit]
Cc1ccc2nc(N3C(=O)C(O)=C(C(=O)c4ccco4)C3c3ccc(C)o3)sc2c1 (configuration not stated)	inconclusive: 26.9 µM [inhibitor, single point]
C=CCOc1cccc(C2NC(=O)c3ccccc3O2)c1 (configuration not stated)	inconclusive: 26.9 µM [inhibitor, partial curve, poor fit]
O=C(COC(=O)CSc1ccc2ccccc2c1Br)NC1CC1	inconclusive: 37.9 µM [inhibitor, partial curve, poor fit]
Cc1ccc(NC(=O)CN2C(=O)NC3(CCCCC3C)C2=O)cc1S(=O)(=O)N1CCCCC1 (configuration not stated)	inactive
S=C(Nc1cc(Cl)ccc1Cl)Nn1cnnc1	inconclusive: 21.3 µM [inhibitor, partial curve, poor fit]

Structure (SMILES)	Potency
Cc1cccc(NC(=S)NNC(=O)c2ccco2)c1	inconclusive: 26.9 µM [inhibitor, partial curve, poor fit]
Cc1ccc(OCC(=O)N2CCN(c3nnc(-c4ccccc4)c4ccccc34)CC2)cc1	inconclusive: 37.9 µM [inhibitor, partial curve, poor fit]
CNS(=O)(=O)c1ccc(NC(=O)c2ccccn2)cc1	active: 15.1 µM
CCC(CO)Oc1cc(NCc2ccccc2Cl)c2ncn(C(C)C)c2c1 (configuration not stated)	inactive
O=C(O)C(=O)/C(=C\c1cccc2ccccc12)c1ccc2ccccc2n1	inactive
Nc1ccc(OC(=O)Nc2ccc(O)cc2)cc1	inconclusive: 26.9 µM [inhibitor, partial curve, poor fit]
O=C(/C=C/N1CCOCC1)c1coc2ccccc12	active: 9.53 µM
COc1cc(C(=O)Nc2nnc(SCC(=O)NCC3CCCO3)s2)cc(OC)c1OC (configuration not stated)	inactive
COC(=O)c1ccc(NC(=O)c2c(NCc3ccc(C)o3)sc3c2CCCC3)cc1	inconclusive: 30.1 µM [inhibitor, single point]
C/C(=N\NC(=O)c1nc2ccccn2c1C)c1ccc2c(c1)OCO2	inconclusive: 30.1 µM [inhibitor, partial curve, poor fit]
COC(=O)c1ccc(COC(=O)c2cnc(Cl)c(Cl)c2)cc1	inconclusive: 42.6 µM [inhibitor, partial curve, poor fit]
COc1cc(-c2noc(-c3cc4cc(F)ccc4oc3=O)n2)cc(OC)c1OC	inactive
CCc1nnc(NC(=O)c2cc(=O)c3cc(C)c(C)cc3o2)s1	inconclusive: 13.5 µM [inhibitor, partial curve]
Cc1nn(-c2ccccc2)c(C)c1/C=N/NC(=O)c1cc(-c2cccs2)[nH]n1	active: 13.5 µM
COCCn1c(SCC(=O)N2CCCCC2)nc2c(c1=O)SC(C)C2 (configuration not stated)	inactive
CCc1cccc(NC(=O)CN(C)S(=O)(=O)c2cccc3nsnc23)c1	inconclusive: 21.3 µM [inhibitor, partial curve, poor fit]
O=C(NC(=S)NNC(=O)c1ccccc1O)c1cccs1	inconclusive: 23.9 µM [inhibitor, single point]
Cc1ccc2c(CC(=O)Nc3ccc(F)c(S(=O)(=O)N4CCOCC4)c3)coc2c1	inconclusive: 8.49 µM [inhibitor, partial curve, poor fit]
COc1ccccc1CCNC(=O)Nc1cccc([N+](=O)[O-])c1	inconclusive: 37.9 µM [inhibitor, partial curve, poor fit]
CC(C)(C)c1ccc(C(=O)NCc2nnc(SCC(=O)NCC3CCCO3)o2)cc1 (configuration not stated)	inconclusive: 26.9 µM [inhibitor, single point]
CCN(CC)S(=O)(=O)c1ccc(C(=O)Nc2nnc(NC(=S)Nc3ccccc3)s2)cc1	inconclusive: 37.9 µM [inhibitor, partial curve, poor fit]
COc1cc(/C=C/C(=O)c2ccc(Cl)s2)cc(OC)c1O	inconclusive: 26.9 µM [inhibitor, single point]
Cc1nnc(SCC(=O)Nc2cc(-c3cc(C)c(C)cc3C)nn2-c2ccccc2)s1	inconclusive: 37.9 µM [inhibitor, partial curve, poor fit]

Structure (SMILES)	Potency
Cc1nnc(SCc2ccc(CSc3nnc(C)c(=O)[nH]3)cc2)[nH]c1=O	inconclusive: 16.9 µM [inhibitor, partial curve]
CCCNC(=O)COC(=O)c1cc(-c2ccc(OC)cc2)nc2ccccc12	inconclusive: 9.53 µM [inhibitor, partial curve]
CN(C)c1ccc(C#Cc2ccc3cc(CCCO)oc(=O)c3c2)cc1	active: 1.69 µM
Cc1c(Cl)cccc1-n1ncc(C(=O)Nc2ccc3c(c2)OCCO3)c1C1CCN(C(=O)OC(C)(C)C)CC1	inconclusive: 13.5 µM [inhibitor, partial curve]
CCCNC(=O)c1cc(-c2ccc(Br)cc2)on1	inconclusive: 2.39 µM [inhibitor, full curve]
COc1ccc(C(=O)N/N=C/C(Br)=C/c2ccccc2)cc1	active: 3.01 µM
Cc1ccc(NC(=O)Cn2c(-c3ccc4c(c3)OCO4)cn(-c3ccccc3)c2=O)cc1C	inconclusive: 13.5 µM [inhibitor, partial curve, poor fit]
COc1ccccc1CCC(=O)Nc1ccc2c(c1)CN(Cc1ccc(C)o1)CC2	inactive
Cc1[nH]c2ccccc2c1C(=O)CN1C(=O)C(=O)N(Cc2ccco2)C1=O	inconclusive: 21.3 µM [inhibitor, partial curve, poor fit]
Cc1[nH]c2ccccc2c1N=Nc1ccccc1C(=O)O	inconclusive: 15.1 µM [inhibitor, single point]
COc1ccc2cc(C(=O)NCc3ccco3)c(=Nc3ccc(C(=O)O)cc3)oc2c1	inconclusive: 26.9 µM [inhibitor, single point]
Cc1c(C(=O)NNC(=S)Nc2cccc(Cl)c2)nnn1-c1ccccc1	inconclusive: 26.9 µM [inhibitor, single point]
O=C(NN1CCOCC1)c1cc(-c2ccc(Br)cc2)nc2ccccc12	inconclusive: 13.5 µM [inhibitor, partial curve, poor fit]
Cc1[nH]c2ccccc2c1C(=O)COc1ccccc1	inconclusive: 23.9 µM [inhibitor, partial curve]
O=C(O)Cc1coc2cc3c(cc12)CCC3	inconclusive: 23.9 µM [inhibitor, partial curve, poor fit]
c1cncc(-c2noc(CC3CCCCC3)n2)c1	inconclusive: 19 µM [inhibitor, single point]
COc1ccccc1NC(=O)Cn1cnc2c(nnn2-c2ccc(C)cc2)c1=O	inactive
NC(=O)C1=NOC(CNc2ncc(C(F)(F)F)cc2Cl)C1 (configuration not stated)	inconclusive: 37.9 µM [inhibitor, partial curve, poor fit]
O=C(CC(Nc1ccccc1)C(=O)O)c1ccccc1 (configuration not stated)	active: 0.849 µM
CCCc1cc(=O)[nH]c(SCC(=O)Nc2nc(-c3ccccc3)cs2)n1	inconclusive: 26.9 µM [inhibitor, single point]
CC1C/C(=N/NC(=O)c2ccc(CSc3nc4ccccc4[nH]3)cc2)CC(C)(C)C1 (configuration not stated)	inconclusive: 16.9 µM [inhibitor, partial curve, poor fit]
